{"source": "paper PMC3156899", "about": "(Clinical cancer research : an official journal of the …, 2011)", "system": "CD4+ T cells from DP4+ CMV Ab+ healthy donors", "type": "cell-based, human"}
{"substance": "221DQYVKVYLESFCEDVPSGKL240 [pp65#23]", "values": [{"measurement": "donors from whom peptide-specific CD4+ T cells were generated", "setting": "DP4-aAPC pulsed with pp65#23 peptide, DP4+ CMV Ab+ donors", "result": "all five"}, {"measurement": "time peptide-specific CD4+ T cells were maintained in culture", "setting": "without allogeneic feeder cells or T cell cloning, Figure 3A", "result": "greater than 50 days"}]}
